Data: the supplement of paper PMC4466236
Over roughly 33,000 sequences, “E-score (dimensionless, -0.5 to 0.5)” has its median near -0.058; the highest 2% begin near 0.35. The list shows a part of the results.

system: MvaT; experiment: PBM 8-mer E-score (mean of HK and ME arrays) (E-score (dimensionless, -0.5 to 0.5)); higher = stronger relative binding preference; most listed sequences are background and not binding sites
Outline: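 Full-length P. aeruginosa MvaT carrying an N-terminal glutathione S-transferase tag was tested by protein binding microarray following a previously described protocol. Two universal double-stranded 60-mer arrays, ME and HK, were used, each with a constant 25-mer primer region and a variable 35-mer region covering all 8-mers. The rank-based E-score is the mean of the two arrays, parsed with a custom script. Its range runs from -0.5 to 0.5 for each 8-mer.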

Sequence | PBM 8-mer E-score
GTCTCCCA | -0.167
ATTTGATG | 0.0779
ACGCTCTG | -0.221
CCACCATA | 0.0561
ACATTCAC | 0.139
ACGTTAAC | 0.232
CGAAGATA | 0.134
CCTGCGCG | -0.165
CCGCCTCA | -0.183
AGAAGGGG | -0.234
CATCCTTA | 0.0793
GAAATCTC | -0.0666
GGCCGTCA | -0.173
ATTGACTA | 0.0534
CCAGGGAG | -0.283
CTCTTGGA | -0.282
CTGTTCCA | -0.0683
AAGCAGGC | -0.181
TCTGCACA | -0.0844
GACTGTTA | 0.0473
CCGAGTTA | 0.0262
ATCATCCG | -0.0986
TCGGCACA | -0.0747
ACCCGGCT | -0.145
GACGGCCC | -0.128

Sequence | PBM 8-mer E-score
AGGAGTCC | -0.147
ATGGGTGC | -0.0271
CTTCGTGA | -0.0646
CTGCACAA | 0.00355
CAACCGAC | 0.021
AGCACACA | -0.0533
AGGATCTC | -0.253
AAACACTC | 0.0972
CTTAGATC | -0.0588
CTGAACAA | -0.00661
CGAAATCG | 0.0631
GATGGTCA | -0.203
AAATCAGG | 0.0541
CCAGAGGA | -0.226
ACACGAGG | -0.0897
CCGAACGC | -0.072
AAGGGTAA | 0.109
GAATGGAA | -0.055
GGATCGGA | -0.242
CCTCCGAG | -0.338
TGCAAGAA | 0.115
GGAGCTGA | -0.335
ACTGCTCC | -0.0607
AGTCGGGC | -0.148
AAGTCACC | -0.149

Sequence | PBM 8-mer E-score
CTAAGCTA | 0.0924
AACGCGTG | -0.0417
CTTCCTCC | -0.298
AGGTTCAG | -0.158
CTTAAAAA | 0.163
ACGTCGGA | 0.0335
ACAGCTGA | -0.0814
AGAATTAT | 0.315
ACCAACCC | -0.163
CGCGCCGC | -0.183
CATGGACG | -0.283
CTGTGCCA | -0.201
CGCTCCCG | -0.276
CGGCTAAG | -0.136
AAAGCTAG | -0.143
CTCGAGGC | -0.14
CCGGCACG | -0.22
GGGTCCCA | -0.171
CCCCGCAG | -0.0895
CCTCTATA | -0.124
ACGAAAAA | 0.211
ATTGTCGC | 0.0052
ATATGAGG | -0.0136
CGCAGCGA | -0.223
CGCGCGTC | -0.217

Sequence | PBM 8-mer E-score
CGCAGGCC | -0.293
CGAAGCCC | -0.284
GGCCACAA | -0.0863
AAGCAGTG | -0.191
GAAACGGA | -0.164
CAATATAA | 0.404
TGCGAGCA | -0.192
CGTACGGC | -0.13
ATATAACG | 0.406
CACGTCAC | 0.0371
GGGATCCA | -0.223
CGTGTAGA | -0.148
AGGTGACG | -0.124
AAGAGTCG | 0.0788
CCCGAGAA | -0.164
ATTGAACA | 0.161
ATACCCAG | 0.103
GGTGACTA | -0.0881
CCTGATGC | -0.163
AACCCATT | 0.0496
ACGGCTAG | -0.0966
CGGCCAGA | -0.256
ACTGTATG | 0.0446
AGACCATG | -0.252
CTTTCGAA | 0.0825

Sequence | PBM 8-mer E-score
ATAGGTAC | -0.0108
ACCTAGGG | -0.245
AGAACTTA | 0.256
GTTAGAGA | -0.0617
AATTCCCA | 0.105
CTCTACTC | -0.0821
AAACTAGA | 0.145
AGGCTAGC | -0.267
AGTTCTAG | 0.186
CCCTTTCG | -0.409
AACTTCAC | 0.0764
AAAGACAC | -0.0843
ATACTACC | 0.189
CAGCCAAG | -0.106
AACTGGGG | -0.149
ATGTAACG | 0.161
GATGAACC | -0.124
ATAGTCCG | 0.0122
GATGGGCC | -0.178
CGAACAAC | 0.0607
ATAATACA | 0.407
CGTCAGCC | -0.34
AGTCATAG | -0.0787
TAAGAGAA | 0.202
TGAACACA | 0.133

Sequence | PBM 8-mer E-score
GATGGCTA | -0.202
AAACGAAT | 0.239
AGAACGAC | -0.181
CAGTAAGG | -0.108
CTTAGCGC | -0.211
CGCTCGAC | -0.196
TCGGATCA | 0.0217
CTCCTGAC | -0.205
CAGGTATG | -0.0191
AGTATTGG | 0.0374
ACCGTGCT | -0.0112
GGACCGCC | -0.357
AAAGGATG | 0.00643
AAAAAGCA | 0.107
GAGTTCAC | -0.00454
TACCAATA | 0.211
TCACTACA | -0.065
CCCCCTAA | -0.159
AAAGTCAC | -0.0448
CCACATAG | 0.057
GCGGGACA | -0.181
AGTTACAT | 0.318
CGTGGCGC | -0.165
CTGCTAAA | -0.0825
AGATGGTA | 0.0995

Sequence | PBM 8-mer E-score
CAAGGGAC | -0.177
CACGGGTA | -0.0426
AAACGTAA | 0.076
ATATCACA | 0.341
ACCCTTAG | -0.0746
TATTCAGA | 0.109
ATCGTTCC | -0.157
AGCGTCTG | -0.104
GTGCCGTA | -0.0875
GGTACGCA | -0.199
GTGCGTCA | -0.114
CAACTAGC | 0.0174
CTTTTAAC | 0.314
CGGACAGA | -0.095
ATCCAGCC | -0.0761
CTTATGTA | 0.223
TAACGTAA | 0.266
ACACGCGA | -0.123
CCCGGACA | -0.0952
TAGATTCA | 0.0808
AAAGTCCG | -0.0802
AACTTGGT | 0.032
AGACTGAA | -0.0306
CCCGTTCG | -0.309
ACCTCCAT | -0.0488

Sequence | PBM 8-mer E-score
GTCGGTCA | -0.0851
CACGAGAC | -0.108
CCGAACTA | -0.0158
ATTCAGAG | -0.0133
CGTATCAG | -0.0119
AGAATCGA | 0.0194
ACGCCTAG | -0.288
AAACGGTT | 0.11
CGGGTCAC | -0.129
GCCGTACA | -0.0973
CCCGCATA | 0.00227
ATTTCTGC | 0.125
CTTAAGCA | 0.049
AGAGAGGA | -0.0774
CCGCCAAC | -0.288
GTGAGAAA | 0.0298
CCACGGGG | -0.309
AAACAACC | -0.0684
GTTAGAAA | 0.0908
AAAGAGTT | 0.218
AATTATTG | 0.351
GAGGAGGA | -0.315
CCCTGCCG | -0.245
GTGTCGTA | 0.0576
ACCGGTAA | 0.104

Sequence | PBM 8-mer E-score
AATATGAC | 0.183
CCTATTAA | 0.249
ACCGTTAG | -0.0269
AGCCAATG | -0.164
CTCTCAGA | -0.134
ACTCGTGG | -0.112
CAGATAAC | 0.149
ATGAAACA | 0.181
AGCAGCAC | -0.0433
TACAACTA | 0.273
GACCAGCC | -0.256
AGGGGTCG | -0.192
CTGCTGAA | 0.0158
CTGTCGTC | -0.221
AGTGTCAC | -0.0041
AACACTAT | 0.293
GGATGACC | -0.251
AGAGTAAG | 0.0917
CCGTGCAA | 0.056
